Reference: PubChem BioAssay AID588579 (National Center for Advancing Translational Sciences (NCATS), 2011)
Values joined by “and” are separate entries in the source; they are usually repeats but may differ in a detail not shown here. Equal entries are not always repeated. The campaign covered roughly 400,000 compounds. About 2,200 (0.55%) were called active. The shares of active, inactive and inconclusive entries below differ from those in the screen. Calls come from the whole dose curve; as a rule, active = well fitted inhibition curve with a large enough effect; inconclusive = small, poorly fitted or top-dose-only effect, or another doubt; inactive = no such curve, though single readings can be large or run the other way. A potency beside an inconclusive call is a rough fit, not a confirmed value. A structure can be active in one record and inactive in another.

molecular target: DNA polymerase kappa (Homo sapiens) (UniProt Q9UBT6); experiment: qHTS for Inhibitors of Polymerase Kappa; details: purified Pol kappa, fluorescent DNA synthesis assay, 10 min; series mostly up to 107 µM; activity, negative = inhibition: at the top concentration
Chain of UniProt Q9UBT6 (Q9UBT6 whole entry, looked up): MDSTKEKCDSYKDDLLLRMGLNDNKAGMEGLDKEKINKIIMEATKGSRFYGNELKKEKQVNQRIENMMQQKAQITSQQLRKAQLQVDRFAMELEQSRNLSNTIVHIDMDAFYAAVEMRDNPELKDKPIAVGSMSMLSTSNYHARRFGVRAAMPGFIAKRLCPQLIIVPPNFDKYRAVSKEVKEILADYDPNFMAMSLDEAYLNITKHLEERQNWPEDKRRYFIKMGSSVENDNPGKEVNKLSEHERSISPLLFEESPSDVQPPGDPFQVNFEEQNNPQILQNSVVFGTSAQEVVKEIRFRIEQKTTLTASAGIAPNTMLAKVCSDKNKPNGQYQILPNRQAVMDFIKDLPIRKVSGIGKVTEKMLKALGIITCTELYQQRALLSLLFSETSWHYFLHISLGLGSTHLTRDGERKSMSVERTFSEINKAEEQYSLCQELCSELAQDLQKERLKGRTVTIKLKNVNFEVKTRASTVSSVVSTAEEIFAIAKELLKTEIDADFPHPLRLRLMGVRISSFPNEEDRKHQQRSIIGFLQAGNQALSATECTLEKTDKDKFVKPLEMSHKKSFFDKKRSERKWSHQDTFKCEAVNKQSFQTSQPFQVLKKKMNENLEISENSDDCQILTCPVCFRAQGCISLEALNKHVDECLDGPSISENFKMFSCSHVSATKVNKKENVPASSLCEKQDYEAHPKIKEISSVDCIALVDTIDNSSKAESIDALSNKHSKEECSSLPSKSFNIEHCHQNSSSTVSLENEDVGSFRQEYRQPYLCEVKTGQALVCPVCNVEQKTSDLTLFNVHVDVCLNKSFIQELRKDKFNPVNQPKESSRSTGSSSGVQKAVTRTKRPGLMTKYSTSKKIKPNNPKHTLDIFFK
Outline: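 10 nM Pol kappa was preincubated with compounds for 15 min at room temperature. Reaction started with 50 nM (final) substrate. Fluorescence read kinetically at 0 and 10 min.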
% is set by controls: 0 for no effect and ±100 for the full control effect; potency is the fitted concentration of half-maximal effect; tags give direction and shape of the fitted curve.

Row | Compound | Potency | activity, negative = inhibition
1 | CC(C)C(=O)N1CCN(c2ccccc2NC(=O)c2ccco2)CC1 | inconclusive: 89.1 µM [inhibitor, single point] | –
2 | Cn1ccc(-c2ccccc2)n1 | – | inactive: -2.65%
3 | Oc1ccc2c(c1)OCC1(O)Cc3cc(O)c(O)cc3C21 (centres undefined) | active: 31.6 µM | –
4 | Cn1nnnc1SCCNCc1ccccc1OCc1ccccc1F | inconclusive: 89.1 µM [inhibitor, single point] | –
5 | O=C(O)C1C2C=CC(C2)C1C(=O)NCc1ccoc1 (centres undefined) | inconclusive: 44.7 µM [inhibitor, partial curve, poor fit] | –
6 | O=C(COc1ccc(Cl)cc1)Nc1ncc([N+](=O)[O-])s1 | – | inactive: 2.1%
7 | O=C(O)CN1C(=O)/C(=C\C(Br)=C\c2ccccc2)SC1=S | inconclusive: 89.1 µM [inhibitor, single point] | –
8 | COc1cc(NC(=O)CN2C(=O)c3ccccc3C2=O)c(C(=O)O)cc1OC | inconclusive: 89.1 µM [inhibitor, single point] | –
9 | COc1ccc(NC(=O)CC2SC(N3CCOCC3)=NC2=O)c(OC)c1 (centres undefined) | inconclusive: 100 µM [inhibitor, single point] | –
10 | CCCCCCCCCCCCCCC(C(=O)OC)C(O)(CC(=O)OC)C(=O)OC (centres undefined) | inconclusive: 31.6 µM [inhibitor, single point] | –
11 | CCn1c(/C=C/c2ccc(O)c(O)c2)nc2ccccc2c1=O | active: 79.4 µM | –
12 | O=C(CS(=O)(=O)Cc1ccccc1)Nc1nc2ccccc2s1 | inconclusive: 89.1 µM [inhibitor, partial curve, poor fit] | –
13 | O=C1OC2(c3ccc(O)cc3Oc3cc(O)ccc32)c2ccccc21 | active: 31.6 µM and active: 29.9 µM | –
14 | C=CCNC(=O)c1ccc2nc(-c3ccco3)c(-c3ccco3)nc2c1 | inconclusive: 56.2 µM [inhibitor, partial curve, poor fit] | –
15 | Cc1ccc(C2C(C#N)=C(N)Oc3n[nH]c(-c4cccnc4)c32)o1 (centres undefined) | – | inactive: 6.88%
16 | O=c1[nH]c2ccc(S(=O)(=O)N3CCN(c4ccccc4)CC3)cc2[nH]c1=O | inconclusive: 17.8 µM [inhibitor, partial curve, poor fit] | –
17 | Cc1c2c(c(O)c3c(O)cccc13)C(=O)O[C@H]2C1C(N(C)C)C(O)=C(C(N)=O)C(=O)[C@H]1O (some centres undefined) | active: 0.474 µM | –
18 | Cc1cc(/C=C(\C#N)C(=O)Nc2ccccc2)c(C)n1-c1cccnc1 | – | inactive: -7.65%
19 | O=C1OCCN1C(=O)[C@H]1[C@H](c2ccc([N+](=O)[O-])cc2)C(c2ccc(F)cc2)=NN1c1ccc(Br)cc1 | inconclusive: 31.6 µM [inhibitor, partial curve, poor fit] | –
20 | NC(=O)Nc1ccc(C(=O)OCC(=O)Nc2sccc2C(N)=O)cc1 | inconclusive: 89.1 µM [inhibitor, single point] | –
21 | O=C(COC(=O)c1ccc([N+](=O)[O-])s1)NCCc1ccccc1 | inconclusive: 79.4 µM [inhibitor, partial curve, poor fit] | –
22 | Cc1c(Cl)cccc1NC(=O)CCCn1nc(C)c2sc3ccccc3c2c1=O | – | inactive: -2.57%
23 | CC[n+]1ccc(/C=C/c2ccc(N(C)C)cc2)c2ccccc21 | inconclusive: 70.8 µM [inhibitor, partial curve, poor fit] | –

Row | Compound | Potency | activity, negative = inhibition
24 | COc1ccc(-c2cc(C(F)(F)F)c3c(N)c(C(=O)NCCSC)sc3n2)cc1 | – | inactive: -4.41%
25 | CCCCCCCC/C=C\CCCCCCCC(=O)NCCc1ccc(O)c(O)c1 | inconclusive: 39.8 µM [inhibitor, single point] and inconclusive: 33.6 µM [inhibitor, partial curve, poor fit] | –
26 | COCOc1cc(O)c2c(=O)c(OCOC)c(-c3ccc(OCOC)c(OCOC)c3)oc2c1 | active: 79.4 µM | –
27 | CN(C)c1ccc(-c2nc(NCc3cccnc3)c3ccccc3n2)cc1 | inconclusive: 39.8 µM [inhibitor, single point] | –
28 | N#Cc1c(NC(=S)NC(=O)Cc2cccs2)sc2c1CCCCC2 | inconclusive: 89.1 µM [inhibitor, single point] | –
29 | O=C1NN(c2ccccc2)C(=O)/C1=C/c1ccc(Sc2ccc(Cl)cc2)o1 | active: 50.1 µM | –
30 | O=C1CSC(=S)N1/N=C/C=C/c1ccccc1 | inconclusive: 79.4 µM [inhibitor, single point] | –
31 | O=C1C2C=CC=CC2=NC(=S)N1CCN1CCC(=C(c2ccc(F)cc2)c2ccc(F)cc2)CC1 (centres undefined) | inconclusive: 37.7 µM [inhibitor, partial curve, poor fit] | –
32 | COc1ccc(OCCn2nnc3sc4c(c3c2=O)CCCC4)cc1 | inconclusive: 89.1 µM [inhibitor, single point] | –
33 | CCOc1ccc(NC(=O)CCc2nnc3n(C)c(=O)c4sccc4n23)cc1 | inconclusive: 100 µM [inhibitor, partial curve, poor fit] | –
34 | O=C(O)c1ccc(OCc2cn3ccccc3n2)cc1 | – | inactive: -7.27%
35 | O=C(CC1C(=O)NCCN1Cc1cccc(F)c1)NCCCN1CCCC1=O (centres undefined) | inconclusive: 89.1 µM [inhibitor, single point] | –
36 | CC(=C/C(=O)O)/C=C/c1ccco1 | inconclusive: 89.1 µM [inhibitor, partial curve, poor fit] | –
37 | CCOC(=O)C1(Cc2cccc(OC)c2)CCN(Cc2csc(C(C)=O)c2)CC1 | inconclusive: 89.1 µM [inhibitor, single point] | –
38 | Cc1ccc(NC(=S)NC(=O)/C=C/c2ccco2)c(O)c1 | inconclusive: 79.4 µM [inhibitor, partial curve, poor fit] | –
39 | COC(=O)c1ccc(C)c(NC(=O)CCc2ccc(OC)c(OC)c2)c1 | inconclusive: 89.1 µM [inhibitor, single point] | –
40 | COc1ccc(/C=N/NC(=O)c2[nH]nc3c2CCc2ccccc2-3)cc1OC | inconclusive: 56.2 µM [inhibitor, partial curve, poor fit] | –
41 | COc1cc(OC)c(OC)cc1/C=C/c1cc(C(F)(F)F)[nH]c(=O)n1 | – | inactive: -27.6%
42 | CCc1ccc(NC(=O)C(C)OC(=O)c2ccc(NS(=O)(=O)c3ccc(C)c([N+](=O)[O-])c3)cc2)cc1 (centres undefined) | inconclusive: 100 µM [inhibitor, single point] | –
43 | O=C(CN1CCN(c2ccccc2F)CC1)NC(=O)NCc1ccco1 | inconclusive: 79.4 µM [inhibitor, single point] | –
44 | CNc1cccccc1=S | active: 79.4 µM | –
45 | COc1ccc(CN2[C@@H](CC(=O)O)c3ccc(/C=C/C(=O)O)cc3S2(=O)=O)cc1 | active: 35.5 µM | –
46 | COc1ccc(-c2c(-c3ccccc3)c(C(=O)C(=O)NCCCN(C)C)n3ccc4cc(OC)c(OC)cc4c23)cc1OC | inconclusive: 79.4 µM [inhibitor, partial curve, poor fit] | –

Row | Compound | Potency | activity, negative = inhibition
47 | COc1ccc(CN(Cc2ccccc2)C(=O)c2ccno2)cc1COc1ccc(NC(C)=O)cc1 | active: 79.4 µM | –
48 | CCOc1c(O)ccc(/C=C2\SC(=S)NC2=O)c1[N+](=O)[O-] | inconclusive: 89.1 µM [inhibitor, single point] | –
49 | Cc1[nH]n(-c2ncc(-c3ccccc3)s2)c(=O)c1C(c1ccc(Br)cc1)C(C#N)C#N (centres undefined) | inconclusive: 89.1 µM [inhibitor, single point] | –
50 | Cc1ccc(C(=O)OCC(=O)NCc2ccco2)cc1 | – | inactive: -4.8%
51 | Fc1ccc(-n2cc(-c3ccccc3)c3c(=S)nc[nH]c32)cc1 | inconclusive: 89.1 µM [inhibitor, partial curve, poor fit] | –
52 | Cc1ccc(N2C(=O)c3cccc4c(N)ccc(c34)C2=O)c2cccnc12 | inconclusive: 79.4 µM [inhibitor, partial curve, poor fit] | –
53 | CCOC(=O)c1c(C)[nH]c(CCC(=O)NCc2cc(OC)c(OC)c(OC)c2)c1C | – | inactive: -10.2% [at 60.1 µM]
54 | O=C(c1ccncc1)N1CCC2(CCN(Cc3cc(C(F)(F)F)cc(C(F)(F)F)c3)CC2)CC1 | – | inactive: -13% [at 60.1 µM]
55 | COc1cc(C2C(C#N)=C(N)OC3=C2C(=O)CCC3)c([N+](=O)[O-])cc1OC (centres undefined) | active: 89.1 µM | –
56 | COc1cc(NC(=O)C2CCN(c3cnccn3)CC2)cc(OC)c1 | inconclusive: 89.1 µM [inhibitor, single point] | –
57 | COc1ccc(N2Cc3ccccc3C2=O)cc1 | – | inactive: -4.98%
58 | O=C1NC(c2ccccc2Br)=N/C1=C\c1ccco1 | active: 79.4 µM | –
59 | COc1ccc(O)c(C(=O)C2c3ccccc3C(=O)N2c2ccc(C)cc2)c1 (centres undefined) | – | inactive: -17.2%
60 | O=[N+]([O-])c1c(Nc2ccccn2)cc(Cl)c2nonc12 | inconclusive: 100 µM [inhibitor, partial curve, poor fit] | –
61 | Cc1nnc(SCC(=O)N2N=C(c3ccc(Cl)cc3)CC2c2ccco2)[nH]c1=O (centres undefined) | active: 50.1 µM | –
62 | CCOc1ccc(NC(=O)Cn2nnc(-c3nc(-c4ccncc4)no3)c2N)cc1 | – | inactive: -5.27%
63 | Cc1cccc(-c2nc3nc(C)cc(NC(C)c4ccccc4)n3n2)c1 (centres undefined) | – | inactive: 1% [at 60.1 µM]
64 | COc1cc(NS(=O)(=O)c2ccc(NC(=O)c3ccc(Cl)cc3Cl)cc2)nc(OC)n1 | inconclusive: 89.1 µM [inhibitor, single point] | –
65 | Cc1ccc(S(=O)(=O)N2CCCCC2)cc1 | inconclusive: 5.62 µM [inhibitor, partial curve, poor fit] | –
66 | Cc1cc(C)c(NC(=O)CSc2nnnn2-c2cccnc2)c(C)c1 | – | inactive: -14.6%
67 | COc1cc(C)ccc1OCC(=O)Nc1ccc2c(c1)OCO2 | – | inactive: 0.506%
68 | Cc1cccc(C)c1NC(=O)CSc1nnc(-c2ccco2)c(-c2ccco2)n1 | active: 28.2 µM | –
69 | COc1cc(N/C=C2\CC(=O)NC(C)=C2C#N)cc(OC)c1OC | inconclusive: 79.4 µM [inhibitor, partial curve] | –
